Laboratory results as given in publication PMC4336329 (PLoS ONE, 2015).
Out of some 310,000 compounds screened, about 14,000 (4.5%) showed an effect of 50% or more. Effects have a minus sign here. The list shows a part of the results.

target: human ether-à-go-go-related gene (hERG) potassium channel (human, UniProt Q12809); assay: primary screen, population patch clamp on CHO cells stably expressing hERG
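Note: peak tail current of the secondary pulse compared with the same well before compound.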

Chain of human ether-à-go-go-related gene (hERG) potassium channel (Q12809 whole entry, looked up): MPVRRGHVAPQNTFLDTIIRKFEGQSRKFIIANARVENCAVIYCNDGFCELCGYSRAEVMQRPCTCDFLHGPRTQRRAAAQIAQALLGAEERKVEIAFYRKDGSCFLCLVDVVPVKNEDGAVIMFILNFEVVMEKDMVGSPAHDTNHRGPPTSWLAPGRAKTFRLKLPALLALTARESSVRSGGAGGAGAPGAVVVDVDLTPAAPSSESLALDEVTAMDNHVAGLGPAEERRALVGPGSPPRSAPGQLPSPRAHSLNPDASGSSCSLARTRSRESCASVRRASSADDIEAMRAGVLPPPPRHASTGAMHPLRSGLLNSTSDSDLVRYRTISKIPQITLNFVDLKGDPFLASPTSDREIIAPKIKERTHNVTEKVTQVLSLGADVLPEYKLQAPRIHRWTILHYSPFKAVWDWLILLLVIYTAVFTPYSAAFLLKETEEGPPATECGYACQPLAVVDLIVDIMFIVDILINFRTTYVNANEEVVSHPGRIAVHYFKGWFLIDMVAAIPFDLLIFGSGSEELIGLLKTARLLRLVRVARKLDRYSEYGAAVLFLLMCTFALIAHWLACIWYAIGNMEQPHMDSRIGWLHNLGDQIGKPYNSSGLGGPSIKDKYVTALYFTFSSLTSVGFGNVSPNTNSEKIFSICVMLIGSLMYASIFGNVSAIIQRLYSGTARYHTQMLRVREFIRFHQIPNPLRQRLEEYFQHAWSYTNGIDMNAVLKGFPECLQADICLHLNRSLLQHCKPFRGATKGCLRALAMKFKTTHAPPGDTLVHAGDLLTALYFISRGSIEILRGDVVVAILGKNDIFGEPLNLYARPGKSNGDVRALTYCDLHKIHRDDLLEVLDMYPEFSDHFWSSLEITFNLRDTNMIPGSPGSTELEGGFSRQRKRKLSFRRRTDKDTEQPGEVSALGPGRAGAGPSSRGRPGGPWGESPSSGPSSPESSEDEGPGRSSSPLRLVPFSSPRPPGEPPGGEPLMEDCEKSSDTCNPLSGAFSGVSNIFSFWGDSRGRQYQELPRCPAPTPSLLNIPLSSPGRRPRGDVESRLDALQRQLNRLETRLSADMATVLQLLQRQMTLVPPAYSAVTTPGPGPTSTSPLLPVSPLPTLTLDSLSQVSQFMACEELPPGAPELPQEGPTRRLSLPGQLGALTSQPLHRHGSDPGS

SMILES | hERG current change (%, negative = inhibition) at 10uM
CCOC(=O)C1=C(CC)Nc2ccccc2N=C1NC(=O)c1ccc(S(=O)(=O)N2CCOCC2)cc1 | -23.7%
COc1ccc(C(NC(=O)C2CCCCC2)c2c(O)ccc3ccccc23)cc1 (stereo not drawn) | 6.08%
O=C(/C=C/c1cccs1)NCc1ccc2c(c1)OCO2 | -12.9%
O=C(/C=C/c1ccccc1[N+](=O)[O-])OC1CCCCC1=O (stereo not drawn) | 16.3%
COc1cccc(NC(=O)CN(C)C(=O)c2cc3c(s2)CCC(C)C3)c1 (stereo not drawn) | 3.28%
Cc1[nH]c(C)c(S(=O)(=O)N2CCCCC2C)c1C(=O)N1CCCC1 (stereo not drawn) | 17%
Cc1ccc(-c2nnc(NC(=O)CCS(=O)(=O)c3ccc(F)cc3)o2)c(C)c1 | 0.358%
COc1ccc(N(CC(=O)NC2CCCC2)C(=O)Cn2nnc(-c3ccc(C)cc3)n2)cc1 | -27.8%
COc1ccc(CCNC(=O)c2ccc3nc[nH]c3c2)cc1 | 24.7%
O=C(NCCc1csc(-c2cccnc2)n1)c1cccs1 | -5.91%
CCSC(C)CC1C/C(=N/O)c2c(CC)noc2C1 (stereo not drawn) | -24.2%
COc1cc(CNc2ncnc3c2[nH]c2ccc(C)cc23)cc(OC)c1 | 8.03%
OCC[C@H]1C[C@@H](O)[C@H](O)[C@]2(CCCc3ccccc3O2)O1 | 10.8%
CC(=O)N1c2ccc(S(=O)(=O)N3CCC(C(=O)Nc4cccc(C)c4)CC3)cc2CC1C (stereo not drawn) | 8.18%
CCc1ccc(N(C(=O)c2csnn2)C(C(=O)NC(C)(C)C)c2cccnc2)cc1 (stereo not drawn) | 4.59%
COc1ccc(CNC(=O)COC(=O)CCCOc2ccc(Cl)cc2Cl)cc1 | 8.91%
CC(C)C(NS(=O)(=O)c1cc(C(=O)O)ccc1Cl)C(=O)O (stereo not drawn) | 3.34%
Cc1ccc(OCC(=O)NCCN2CCCC2)cc1.Cl | 2.48%
CCOC(=O)/C(C#N)=C/c1c(N2CCN(Cc3ccc4c(c3)OCO4)CC2)nc2c(C)cccn2c1=O | -2.37%
Clc1ccc(OCCn2ccnc2)cc1Cl.O=C(O)C(=O)O | 9.38%
CC(N=c1ccccn1C(=O)Nc1ccc(F)cc1)c1ccco1 (stereo not drawn) | 5.95%
COc1cccc(C(O)c2nc3ccccc3n2C(C)C)c1 (stereo not drawn) | 3.4%

SMILES | hERG current change (%, negative = inhibition) at 10uM
O=C(CSc1nnc2ccc(-c3cccnc3)nn12)Nc1ccccc1 | -50.6%
CCNC(=O)c1ccc(C23CC4CC(CC(C4)C2)C3)o1 | 12.9%
CC1=C(C(=O)OC(C)C)C(c2cn(-c3ccccc3)nc2-c2cccs2)NC(=O)N1 (stereo not drawn) | 2.13%
Cc1ccc(O)c(-c2cc(-c3ccccc3[N+](=O)[O-])[nH]n2)c1 | -6.48%
O=C(O)c1cccc(-n2c(/C=C/c3ccc([N+](=O)[O-])cc3)nc3ccccc3c2=O)c1 | 1.6%
CCc1cccc(CC)c1NC(=O)COC(=O)CCc1cc(OC)c(OC)c(OC)c1 | -14.7%
O=C(O)/C=C(\Oc1ccccc1)C1(O)CCCCC1 | 8.23%
CCOC(=O)C1=C(COC(=O)/C=C/c2ccc(OC)c(OC)c2)NC(=O)NC1C (stereo not drawn) | 1.35%
CCN(Cc1cnn(C)c1)C(=O)CC1C(=O)NCCN1Cc1cccc(OC)c1OC (stereo not drawn) | -5.68%
CCc1ccc(C(=O)C(C)OC(=O)C2COc3ccccc3O2)cc1 (stereo not drawn) | -18.9%
Cc1ccc(-n2c(=S)[nH]c3nc4c(cc3c2=O)COC(C)(C)C4)cc1 | 9.68%
Cc1cc(C)cc(NC(=O)C2CCCN(c3nccc(C)n3)C2)c1 (stereo not drawn) | -14.4%
CCN(CC)C(=O)c1sc(N)c(C(=O)OC(C)C)c1C | 3.27%
COC(=O)c1cc2c(s1)=NC=NP=2(N1CCOCC1)N1CCOCC1 | 13.1%
CN(CC(=O)Nc1ccccc1Cl)C(=O)COC(=O)c1ccc(S(=O)(=O)C(F)F)cc1 | -69.9%
COc1ccc(CC(=O)Nc2cccc3c2CCCC3)cc1 | 14.9%
CCCOc1ccc(S(=O)(=O)NCCCN2CCOCC2)c2ccccc12 | -19%
CC(C)C[C@H](NC(=O)c1nc[nH]c1C(=O)NCC(=O)OCc1ccccc1)C(=O)OCc1ccccc1 | 14.9%
CCCOc1cccc(C(=O)Nc2nnn(CCC)n2)c1 | -7.44%
O=c1c2ccccc2oc2cc(OCc3cccc(F)c3)cc(O)c12 | 18.8%
Cc1ccc(C2CC(C(F)(F)F)n3ncc(C(=O)NCc4ccco4)c3N2)cc1 (stereo not drawn) | -7.43%
CC(Oc1ccccc1Cl)c1nnc(N)s1 (stereo not drawn) | -2.34%

SMILES | hERG current change (%, negative = inhibition) at 10uM
CC1(C)OC1COc1c2ccoc2cc2oc(=O)ccc12 (stereo not drawn) | -11.4%
O=C1N(Cc2ccccc2F)c2ccccc2C12OCCCO2 | 10.9%
CCc1cc(Cl)c(OC)c(C(=O)NC[C@@H]2CCCN2CC)c1O.Cl | -59.2%
CC1(C)Cc2c(c(-c3ccco3)[nH]c(=O)c2C#N)CS1 | -5.06%
CCN(CC)S(=O)(=O)c1ccc(N2CCN(c3ccccc3O)CC2)nc1 | -52.8%
O=S(=O)(c1ccccc1)N1CCN(c2nc3ccccc3s2)CC1 | 3.57%
Nc1nc(SCC(=O)c2c(N)n(Cc3ccccc3)c(=O)[nH]c2=O)n[nH]1 | -2.1%
CCC(C)(C)NC(=O)C(c1ccc(OC)cc1)N(C(=O)CCC(=O)Nc1cc(C)on1)c1cccc(F)c1 (stereo not drawn) | 3.48%
O=C(COc1ccccc1)NC(=S)N1CCc2ccccc21 | 17.8%
COc1ccc(N2C(=O)c3ccccc3NC23CCCCC3)cc1 | 6.26%
Cc1ccc(C(=O)N/C(=C/c2cccc([N+](=O)[O-])c2)C(=O)NC(C)C)cc1 | -51.8%
CCOc1ccc(N(CC)C(=O)c2cn(CC)c(=O)c3cc(OC)c(OC)cc23)cc1 | 9.71%
C#CCSc1nnc(CSc2nc3ccccc3s2)n1-c1ccccc1 | -3.87%
CC1CCCCN1C(=O)c1cc(S(=O)(=O)N2CCCCC2)c[nH]1 (stereo not drawn) | 21%
O=C(c1cc2ccccc2o1)N1CCN(c2cccc(C(F)(F)F)c2)CC1 | 3.21%
COc1ccc(-c2csc(NC(C)c3nc4cc(Cl)c(Cl)cc4n3CCCO)n2)cc1 (stereo not drawn) | -4.39%
C=CCn1c(SCC(N)=O)nnc1-c1ccccc1O | 0.103%
CC1CC/C(=C\c2ccc3c(c2)OCO3)C(=O)/C1=C/c1ccc2c(c1)OCO2 (stereo not drawn) | 11.2%
COc1ccc(-c2c(C)nn(-c3ccccc3)c2NC(C)=O)cc1OC | 16.9%
CCc1cc(C(=O)NC(C)C2CCCO2)cs1 (stereo not drawn) | 37.3%
O=C(CN1C(=O)c2ccccc2S1(=O)=O)c1ccc2c(c1)OCCO2 | 10.8%
COC(=O)c1c(C(=O)OC)c(-c2cccc(Cl)c2)n2c1CS(=O)(=O)C2 | -16.6%

SMILES | hERG current change (%, negative = inhibition) at 10uM
CN(CCC#N)C(=O)COC(=O)c1ccc(Cl)c(S(=O)(=O)N(C)c2ccccc2)c1 | -58.2%
O=C(Cc1nc(-c2ccc(Br)s2)cs1)NCCN1CCOCC1 | -7.2%
O=C(Cn1ccc(NC(=O)OCc2ccccc2)nc1=O)NCCN1CCOCC1 | 6.09%
O=C(CCN=C1NS(=O)(=O)c2ccccc21)OCC(=O)c1ccc(F)cc1 | -3.17%
COc1cccc2cc(-c3nc(-c4cccs4)cs3)c(=O)oc12 | 5.36%
CC1(C)Oc2ccc3ccc(=O)oc3c2/C(=C/NNC(N)=O)C1=O | 1.98%
Cc1cc(C)n2nc(SCCC(=O)NCc3ccccc3)nc2n1 | 8.53%
CCCC(=O)Nc1c(-c2ccc(C)cc2)c(=O)c2ccccc2n1C | 12.7%
CCCC(=O)c1c[nH]c(C(=O)N2CCOCC2)c1 | 7.61%
COc1cccc(NC(=S)N/N=C2\CC3CCC2(C)C3(C)C)c1 (stereo not drawn) | 20.5%
COCCNC(=O)CN1C(=O)CSc2ccc(S(=O)(=O)N3CCOCC3)cc21 | 16.1%
COc1ccc(C(=O)c2ccc(OC)c(OC)c2)cc1 | -6.26%
CCCCc1nnc(NC(=O)c2ccccc2OCc2c(C)noc2C)s1 | -10.6%
N#Cc1nc(Cc2cccc3ccccc23)oc1NCCN1CCOCC1 | -20.3%
Cc1ccc(S(=O)(=O)NCc2cccnc2)cc1C(=O)NC1CCCCC1 | -3.53%
CC(C)NC(=O)Cn1cc(C(=O)C(=O)N2CCOCC2)c2ccccc21 | -0.333%
CNC(=O)COc1ccc(S(=O)(=O)Nc2ccc(C)cc2)cc1 | 8.87%
Cc1cc(C)n(C(=O)c2cccc([N+](=O)[O-])c2C)n1 | 11%
Cc1nn(Cc2ccc(Cl)cc2)c(C)c1NC(=O)CSc1nc2c(c(C(F)(F)F)n1)CCc1ccccc1-2 | 5.96%
CCN(CC)S(=O)(=O)c1ccc(OC)c(NC(=O)c2ccc(N3CCCC3=O)cc2)c1 | -15.1%
O=C(CSc1nc2ccccc2s1)N1CCCCC1 | -2.91%
